Source: PMC12820563, “FoxP3 forms a head-to-head dimer in vivo and stabilizes its multimerization on adjacent microsatellites”
The list shows a part of the results.

What follows are sequences tested against T1, MBP-FoxP1dN (Mus musculus, UniProt P58462 326-579) (assay: PD-seq (MBP pull-down with sequencing); 20 mM Tris-HCl pH 7.5, 100 mM NaCl, 1.5 mM MgCl2, 0.4 uM protein, 0.1 uM dsDNA library, 30 min, room temperature, amylose pull-down; high values mean tight binding). Details: protein: recombinant; tags: His6-MBP; chain copies: 2; dsDNA, one strand shown.
T1 sequence: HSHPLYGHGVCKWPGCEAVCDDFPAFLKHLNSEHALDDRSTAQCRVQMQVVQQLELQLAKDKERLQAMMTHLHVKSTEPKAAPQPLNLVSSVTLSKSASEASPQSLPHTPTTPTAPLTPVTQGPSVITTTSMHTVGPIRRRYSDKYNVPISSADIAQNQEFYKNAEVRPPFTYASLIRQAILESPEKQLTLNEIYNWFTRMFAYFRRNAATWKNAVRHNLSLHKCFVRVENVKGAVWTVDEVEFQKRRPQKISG
Procedure, shortened: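 Binding is reads-per-million enrichment of pull-down over input, with replicates pooled. It comes from 30 min room-temperature incubation in Tris pH 7.5 buffer with NaCl and MgCl2 of 0.4 µM His6-MBP-tagged, N-terminally truncated mouse FoxP3 or FoxP1 fragment from E. coli with 0.1 µM Klenow-filled degenerate double-stranded DNA library, followed by amylose resin capture, three washes and Illumina sequencing of the released DNA.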

Q: Which binding signal does the source give for “GATGATTGTTCTCCCAGCTGATGAATTCCAAGCCTCGAGTAAACAAATTTTCCTAATCTTTCTGTTCAAGCGCCATCTAC” here?
A: The binding signal was 0.772 RPM ratio (pull-down/input).

Q: For “GATGATTGTTCTCCCAGCTGATGAATTAATTAGGTCGAGTAAACAAATTTTCCTAATCTTTCTGTTCAAGCGCCATCTAC”, which binding signal is on record?
A: The binding signal was 0.993 RPM ratio (pull-down/input).

Q: How did the binding signal turn out when “GATGATTGTTCTCCCAGCTGATGAATTGTGCCACTCGAGTAAACAAATTTTCCTAATCTTTCTGTTCAAGCGCCATCTAC” was run?
A: Its binding signal is 1.09 RPM ratio (pull-down/input).

Q: Which binding signal does the source give for “GATGATTGTTCTCCCAGCTGATGAATTGTCTATGTCGAGTAAACAAATTTTCCTAATCTTTCTGTTCAAGCGCCATCTAC” here?
A: The binding signal was 1.1 RPM ratio (pull-down/input).

Q: For “GATGATTGTTCTCCCAGCTGATGAATTGCTACCATCGAGTAAACAAATTTTCCTAATCTTTCTGTTCAAGCGCCATCTAC”, which binding signal is on record?
A: The binding signal was 1.14 RPM ratio (pull-down/input).

Q: “GATGATTGTTCTCCCAGCTGATGAATTCACAACCTCGAGTAAACAAATTTTCCTAATCTTTCTGTTCAAGCGCCATCTAC” was tested. Which binding signal did it give?
A: Its binding signal is 0.972 RPM ratio (pull-down/input).

Q: For “GATGATTGTTCTCCCAGCTGATGAATTCGATCTGTCGAGTAAACAAATTTTCCTAATCTTTCTGTTCAAGCGCCATCTAC”, which binding signal is on record?
A: Its binding signal is 0.74 RPM ratio (pull-down/input).

Q: Which binding signal does the source give for “GATGATTGTTCTCCCAGCTGATGAATTTGCAACTTCGAGTAAACAAATTTTCCTAATCTTTCTGTTCAAGCGCCATCTAC” here?
A: The binding signal was 1.5 RPM ratio (pull-down/input).

Q: How did the binding signal turn out when “GATGATTGTTCTCCCAGCTGATGAATTCGGGCTGTCGAGTAAACAAATTTTCCTAATCTTTCTGTTCAAGCGCCATCTAC” was run?
A: The binding signal was 0.742 RPM ratio (pull-down/input).

Q: “GATGATTGTTCTCCCAGCTGATGAATTCTCAGGGTCGAGTAAACAAATTTTCCTAATCTTTCTGTTCAAGCGCCATCTAC” was tested. Which binding signal did it give?
A: The binding signal was 0.745 RPM ratio (pull-down/input).

Q: Which binding signal does the source give for “GATGATTGTTCTCCCAGCTGATGAATTGGGTAAGTCGAGTAAACAAATTTTCCTAATCTTTCTGTTCAAGCGCCATCTAC” here?
A: The binding signal was 0.902 RPM ratio (pull-down/input).

Q: “GATGATTGTTCTCCCAGCTGATGAATTTCATAGGTCGAGTAAACAAATTTTCCTAATCTTTCTGTTCAAGCGCCATCTAC” was tested. Which binding signal did it give?
A: The binding signal was 0.758 RPM ratio (pull-down/input).

Q: “GATGATTGTTCTCCCAGCTGATGAATTTTAACTATCGAGTAAACAAATTTTCCTAATCTTTCTGTTCAAGCGCCATCTAC” was tested. Which binding signal did it give?
A: Its binding signal is 1.01 RPM ratio (pull-down/input).

Q: How did the binding signal turn out when “GATGATTGTTCTCCCAGCTGATGAATTCGAGAATTCGAGTAAACAAATTTTCCTAATCTTTCTGTTCAAGCGCCATCTAC” was run?
A: Its binding signal is 0.871 RPM ratio (pull-down/input).

Q: For “GATGATTGTTCTCCCAGCTGATGAATTAGTTATGTCGAGTAAACAAATTTTCCTAATCTTTCTGTTCAAGCGCCATCTAC”, which binding signal is on record?
A: Its binding signal is 1.02 RPM ratio (pull-down/input).

Q: For “GATGATTGTTCTCCCAGCTGATGAATTACTCAGGTCGAGTAAACAAATTTTCCTAATCTTTCTGTTCAAGCGCCATCTAC”, which binding signal is on record?
A: Its binding signal is 0.891 RPM ratio (pull-down/input).

Q: For “GATGATTGTTCTCCCAGCTGATGAATTTTAATCCTCGAGTAAACAAATTTTCCTAATCTTTCTGTTCAAGCGCCATCTAC”, which binding signal is on record?
A: The binding signal was 0.832 RPM ratio (pull-down/input).

Q: Which binding signal does the source give for “GATGATTGTTCTCCCAGCTGATGAATTGCTTATCTCGAGTAAACAAATTTTCCTAATCTTTCTGTTCAAGCGCCATCTAC” here?
A: Its binding signal is 1.5 RPM ratio (pull-down/input).

Q: For “GATGATTGTTCTCCCAGCTGATGAATTCACTCATTCGAGTAAACAAATTTTCCTAATCTTTCTGTTCAAGCGCCATCTAC”, which binding signal is on record?
A: Its binding signal is 0.903 RPM ratio (pull-down/input).

Q: “GATGATTGTTCTCCCAGCTGATGAATTCAACGTCTCGAGTAAACAAATTTTCCTAATCTTTCTGTTCAAGCGCCATCTAC” was tested. Which binding signal did it give?
A: The binding signal was 0.934 RPM ratio (pull-down/input).

Q: Which binding signal does the source give for “GATGATTGTTCTCCCAGCTGATGAATTACGGGTCTCGAGTAAACAAATTTTCCTAATCTTTCTGTTCAAGCGCCATCTAC” here?
A: Its binding signal is 0.889 RPM ratio (pull-down/input).

Q: Which binding signal does the source give for “GATGATTGTTCTCCCAGCTGATGAATTGAATACATCGAGTAAACAAATTTTCCTAATCTTTCTGTTCAAGCGCCATCTAC” here?
A: The binding signal was 1.14 RPM ratio (pull-down/input).

Q: How did the binding signal turn out when “GATGATTGTTCTCCCAGCTGATGAATTATTGTCATCGAGTAAACAAATTTTCCTAATCTTTCTGTTCAAGCGCCATCTAC” was run?
A: Its binding signal is 1.86 RPM ratio (pull-down/input).

Q: With “GATGATTGTTCTCCCAGCTGATGAATTTAAGCCATCGAGTAAACAAATTTTCCTAATCTTTCTGTTCAAGCGCCATCTAC” as the sequence, how does the binding signal read?
A: Its binding signal is 0.944 RPM ratio (pull-down/input).

Q: With “GATGATTGTTCTCCCAGCTGATGAATTAATTACATCGAGTAAACAAATTTTCCTAATCTTTCTGTTCAAGCGCCATCTAC” as the sequence, how does the binding signal read?
A: The binding signal was 1.26 RPM ratio (pull-down/input).

Q: How did the binding signal turn out when “GATGATTGTTCTCCCAGCTGATGAATTAAAGTTATCGAGTAAACAAATTTTCCTAATCTTTCTGTTCAAGCGCCATCTAC” was run?
A: Its binding signal is 1.13 RPM ratio (pull-down/input).

Q: How did the binding signal turn out when “GATGATTGTTCTCCCAGCTGATGAATTGACTCAATCGAGTAAACAAATTTTCCTAATCTTTCTGTTCAAGCGCCATCTAC” was run?
A: The binding signal was 1.11 RPM ratio (pull-down/input).

Q: For “GATGATTGTTCTCCCAGCTGATGAATTAATCATTTCGAGTAAACAAATTTTCCTAATCTTTCTGTTCAAGCGCCATCTAC”, which binding signal is on record?
A: Its binding signal is 0.991 RPM ratio (pull-down/input).

Q: How did the binding signal turn out when “GATGATTGTTCTCCCAGCTGATGAATTCACCAAGTCGAGTAAACAAATTTTCCTAATCTTTCTGTTCAAGCGCCATCTAC” was run?
A: Its binding signal is 0.776 RPM ratio (pull-down/input).

Q: How did the binding signal turn out when “GATGATTGTTCTCCCAGCTGATGAATTTACTGCTTCGAGTAAACAAATTTTCCTAATCTTTCTGTTCAAGCGCCATCTAC” was run?
A: The binding signal was 1.15 RPM ratio (pull-down/input).

Q: For “GATGATTGTTCTCCCAGCTGATGAATTTCGAATTTCGAGTAAACAAATTTTCCTAATCTTTCTGTTCAAGCGCCATCTAC”, which binding signal is on record?
A: The binding signal was 0.897 RPM ratio (pull-down/input).

Q: With “GATGATTGTTCTCCCAGCTGATGAATTAGGCCACTCGAGTAAACAAATTTTCCTAATCTTTCTGTTCAAGCGCCATCTAC” as the sequence, how does the binding signal read?
A: Its binding signal is 0.876 RPM ratio (pull-down/input).

Q: How did the binding signal turn out when “GATGATTGTTCTCCCAGCTGATGAATTTGCTTTTTCGAGTAAACAAATTTTCCTAATCTTTCTGTTCAAGCGCCATCTAC” was run?
A: The binding signal was 1.21 RPM ratio (pull-down/input).

Q: “GATGATTGTTCTCCCAGCTGATGAATTACCCTGCTCGAGTAAACAAATTTTCCTAATCTTTCTGTTCAAGCGCCATCTAC” was tested. Which binding signal did it give?
A: The binding signal was 0.856 RPM ratio (pull-down/input).

Q: “GATGATTGTTCTCCCAGCTGATGAATTGCGGATGTCGAGTAAACAAATTTTCCTAATCTTTCTGTTCAAGCGCCATCTAC” was tested. Which binding signal did it give?
A: Its binding signal is 1.11 RPM ratio (pull-down/input).

Q: For “GATGATTGTTCTCCCAGCTGATGAATTTAGCTATTCGAGTAAACAAATTTTCCTAATCTTTCTGTTCAAGCGCCATCTAC”, which binding signal is on record?
A: Its binding signal is 1 RPM ratio (pull-down/input).

Q: For “GATGATTGTTCTCCCAGCTGATGAATTAGTCATCTCGAGTAAACAAATTTTCCTAATCTTTCTGTTCAAGCGCCATCTAC”, which binding signal is on record?
A: The binding signal was 0.918 RPM ratio (pull-down/input).

Q: “GATGATTGTTCTCCCAGCTGATGAATTACGATCATCGAGTAAACAAATTTTCCTAATCTTTCTGTTCAAGCGCCATCTAC” was tested. Which binding signal did it give?
A: Its binding signal is 0.984 RPM ratio (pull-down/input).

Q: With “GATGATTGTTCTCCCAGCTGATGAATTGTTGCCCTCGAGTAAACAAATTTTCCTAATCTTTCTGTTCAAGCGCCATCTAC” as the sequence, how does the binding signal read?
A: The binding signal was 1.42 RPM ratio (pull-down/input).

Q: Which binding signal does the source give for “GATGATTGTTCTCCCAGCTGATGAATTGCTAGCGTCGAGTAAACAAATTTTCCTAATCTTTCTGTTCAAGCGCCATCTAC” here?
A: Its binding signal is 0.999 RPM ratio (pull-down/input).
